# Results as given in the supplement of paper PMC5499739.
# In all, about 16,000 sequences were measured (“Z-score”: median about -0.37, highest 2% from about 3.1 on). Some of the results follow.
# Tested on: RBM10 RRM1-ZnF-RRM2 (GST-tagged construct)
# Assay: RNAcompete 7-mer binding Z-score; higher = stronger binding preference
# Procedure, shortened: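 A designed pool of 241 399 RNAs, each up to 41 nt and transcribed from microarray-derived DNA templates, was used at 1.5 nmol with 20 pmol of GST-tagged RBM10 constructs. The mixture, in 1 ml Hepes pH 7.8 buffer with KCl, NaCl, glycerol, DTT, BSA and glutathione Sepharose beads, was held 30 min at 4°C and then washed four times for 2 min at 4°C. Bound RNA was read out by microarray hybridisation, and enrichment of each heptamer motif was scored as a one-sided Z-score over the probes carrying it.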
row,Sequence,RNAcompete 7-mer binding Z-score
1,AUCAUGA,-0.202
2,UCACCUA,-0.828
3,UUUCCUC,-0.795
4,GGCGAAA,1.35
5,CGAUCCG,-0.628
6,UCGAACC,-0.664
7,CGGAGUU,0.17
8,CGGUGGC,1.61
9,AAAAAUG,0.159
10,AAAAAGC,-0.118
11,UUUACAC,-0.759
12,AGGAGCC,0.239
13,CAGCCAC,-0.643
14,GAGGUUC,0.268
15,AGUAAUG,0.468
16,CAUACGU,-0.246
17,CGUUGCG,0.00216
18,ACGCAGA,0.359
19,ACACAAG,-0.264
20,CAGCACC,-0.377
21,AACAACU,-0.431
22,AAAGCCG,-0.577
23,UCCCUAG,-0.664

row,Sequence,RNAcompete 7-mer binding Z-score
1,CUAGCGG,0.406
2,UCAACUU,-0.792
3,GUUAUGA,0.188
4,UUGCGAU,-0.406
5,CGGACGC,0.479
6,GCUAGAA,-0.0525
7,UAGUCUA,-0.391
8,ACAUGCG,-0.0998
9,UUACUAA,-0.559
10,CGACCUU,-0.985
11,ACCGGAU,0.00944
12,CACCCCC,-0.592
13,UUUCUGC,-0.876
14,GCAUUGA,-0.118
15,UCGCGAA,-0.49
16,UUAACUA,-0.592
17,GCAUCUC,-0.701
18,ACUUAUC,-0.89
19,UUCCUUA,-0.763
20,CGUAUGU,-0.337
21,UCGCAAG,-0.482
22,CUAACAC,-0.664
23,ACGACAU,-0.0525

row,Sequence,RNAcompete 7-mer binding Z-score
1,AGCCCAA,-0.686
2,GUCUAAG,-0.286
3,CCUUGGG,0.268
4,CUUCGGG,0.13
5,ACGUCGU,-0.242
6,UACCGCC,-0.832
7,CCAGCUU,-0.817
8,AUAUUGU,-0.49
9,AGCAAGG,2.82
10,UCGCUUG,-0.788
11,AUCCCAA,-0.766
12,CUGACCU,-0.999
13,CAUAAGC,-0.661
14,UCAAACC,-0.719
15,CAGCUCG,-0.723
16,CUCGUGU,-0.522
17,GCAUCAA,-0.46
18,UUGUUAG,-0.398
19,GUGUUCA,-0.442
20,CCCGCGU,-0.562
21,UUAGCUC,-0.781
22,CGGCUAA,-0.198
23,CGAUCGA,-0.0816

row,Sequence,RNAcompete 7-mer binding Z-score
1,UCAAAGA,-0.198
2,GCACUAA,-0.326
3,CCUACAU,-0.952
4,CACAUAU,-0.697
5,UGUCGUG,-0.0853
6,CGGUUUC,-0.227
7,GUUAGCG,0.468
8,UAAAACC,-0.508
9,GUCGACC,-0.253
10,UCCUGCU,-0.883
11,GUACCUC,-0.464
12,CCUGGAG,0.0167
13,UGCAGCC,-0.329
14,CGUCGGG,1.14
15,UAGAGGU,1.68
16,GUCGUCG,0.206
17,GACCGGA,0.108
18,CACAAAA,-0.544
19,GCUAGGU,0.574
20,GCCGAAG,-0.0343
21,UAAAAAC,-0.497
22,AGACGUU,-0.639
23,UGACACA,-0.315

row,Sequence,RNAcompete 7-mer binding Z-score
1,CUGUAGG,0.279
2,UCGUAAU,-0.471
3,AGGUGGU,2.19
4,CAUUCUC,-0.857
5,UGCAGCU,-0.391
6,CUGUGCA,-0.526
7,UGUGGCC,0.0459
8,GCGCGUA,-0.027
9,GCAAUCC,-0.457
10,UGUCUUU,-0.763
11,CCCCAUG,-0.592
12,AGGAUCU,-0.431
13,UAAUAUU,-0.621
14,AUGAUGC,-0.344
15,AUUCGGU,-0.0816
16,AAGAUAU,-0.107
17,UAGUAAU,-0.326
18,CCCGGUA,-0.238
19,ACUUUAU,-0.832
20,GAAUAUA,0.104
21,CCCAGUA,-0.686
22,GGCAAAC,0.734
23,GGCAAGG,3.47

row,Sequence,RNAcompete 7-mer binding Z-score
1,GCACCUU,-0.599
2,UGGUGCG,1.26
3,GGAAACG,1.92
4,CCGCCGC,-0.759
5,UACUUCC,-0.981
6,UACGAAC,-0.235
7,GUGCACC,-0.0306
8,UCCGUAA,-0.69
9,UAGGCUU,-0.333
10,AUUGAAA,-0.26
11,CGUAUAA,-0.289
12,UCUGGCG,-0.5
13,CUAAAAG,-0.311
14,UGACUCC,-0.668
15,UGAGCGA,1.34
16,GUGUGGA,2.7
17,AUUCCGU,-0.653
18,GCGGAGA,1.67
19,GGUUGGU,1.94
20,ACCUGUC,-0.846
21,AGGUGAC,1.69
22,UACUAAG,-0.191
23,GGCGAGG,3.22

row,Sequence,RNAcompete 7-mer binding Z-score
1,CGCCCGG,-0.446
2,CAUCGGG,1.11
3,CCCCGGC,-0.497
4,UGUUUGU,-0.286
5,GGGGAGA,2.53
6,CGCAUCC,-0.683
7,CUAGUUA,-0.384
8,UCACGUC,-0.683
9,CUUCUAU,-0.839
10,AAUAAGU,0.00944
11,UGUGGAG,2.47
12,GUUAGAG,1.13
13,AGGUGAA,2.11
14,CUGCAGG,0.272
15,UGUGCUG,-0.0998
16,CACUCAC,-0.846
17,AUAGAUG,0.538
18,CAGAGCU,-0.151
19,UUCCAUC,-0.701
20,UCACAAU,-0.511
21,UUUUGAG,-0.264
22,GGAAGCA,1.76
23,UUUUAGU,-0.442

row,Sequence,RNAcompete 7-mer binding Z-score
1,GCUAGGC,0.0349
2,GAUCGCG,-0.0925
3,CACAGUA,-0.22
4,AACACGU,-0.3
5,CCCCACU,-0.755
6,UUGCUCA,-0.726
7,ACGUCCA,-0.755
8,UAGAUGA,0.348
9,GAACACG,0.421
10,GCACUCU,-0.803
11,UCCUUAC,-0.65
12,CUGAUUA,-0.715
13,AUCUACA,-0.704
14,CAAUAAU,-0.442
15,AUACUUU,-0.923
16,ACUUGCA,-0.726
17,GGGCCCA,-0.151
18,GAAAAUG,1.46
19,GCUACUU,-0.643
20,CUGCAUA,-0.69
21,AACGUAG,0.756
22,ACUUCCA,-0.843
23,ACCGCCU,-0.941
